According to patent publication US20240239894A1, “THERAPEUTIC BINDING MOLECULES” (MedImmune Limited, priority 2020, published 2024):

Tests used:
[1] = tested on: non-transfected Ad293 cells; assay: In vitro cytotoxicity (CellTiter-Glo); assay type: cell-based; details: six days
From the text: The clone E02-GL was conjugated to the topoisomerase I payload SG3932 at an average Drug Antibody Ratio (DAR) of 8 (providing E02-GL-SG3932) and tested for the ability to target and kill both human B7-H4 transfected and non-transfected Ad293 cells (e.g. the latter representing a negative control). The antibody NIP228 conjugated to SG3932 was used as a control.
Cell lines were detached from tissue culture flasks by TrypLE Express (Gibco, Paisley, UK), pelleted by centrifugation, and resuspended in growth media (RPMI-1640, 10% FBS). Viable cells were counted by trypan blue exclusion using a Vi-CELL XR Cell Viability Analyzer (Beckman Coulter Life Sciences, Indianapolis, Indiana). Cell densities were adjusted to 3.33×10^4 cells/mL in growth media. […]
ADCs (e.g. NIP228-SG3932 and E02-GL-SG3932) were diluted into growth media (RPMI-1640, 10% FBS) at a concentration of 240 μg/mL. […] Cells were cultured in a humidified tissue culture incubator at 37° C. in 5% CO2 for six days at which time cell viability was assessed using CellTiter-Glo® assay (Promega, Southampton, UK) according to the manufacturer's protocol. Luminescence was measured using an Envision multilabel plate reader (Perkin Elmer, Seer Green, UK). […]

[2] = Serum stability (immunoprecipitation, rLCMS); assay type: in vitro ADME
Procedure: The stability of E02-GL-SG3932 in cynomolgus monkey, mouse, and rat serum was evaluated using immunoprecipitation followed by reduced reverse phase mass spectrometry (rLCMS). […] The stability of E02-GL-SG3932 in human serum was evaluated by immunocapture using human B7-H4 coated resin, followed by rLCMS. Measurements indicate that drug loss after incubation in human serum was modest, with 81% of SG3924 remaining attached to E02-GL-SG3932 at day 15.

[3] = molecular target: T1, human B7-H4 antigen (Homo sapiens, UniProt Q7Z7D3); assay: SPR, antibody capture method; assay type: binding
T1 sequence (Q7Z7D3 25-282): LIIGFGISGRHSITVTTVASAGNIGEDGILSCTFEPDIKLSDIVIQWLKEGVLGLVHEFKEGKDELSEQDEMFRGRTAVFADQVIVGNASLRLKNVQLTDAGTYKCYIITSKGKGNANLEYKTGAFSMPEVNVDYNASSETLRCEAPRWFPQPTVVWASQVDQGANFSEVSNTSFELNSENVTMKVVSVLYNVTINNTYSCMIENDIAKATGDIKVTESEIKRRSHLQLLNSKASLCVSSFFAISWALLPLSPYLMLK
Procedure: To assess whether conjugation of the topoisomerase 1 linker-warhead affected binding properties of the E02-INT antibody, the binding affinity of E02-INT and E02-GL-SG3932 were measured using a DELFIA-ELISA method and an SPR method. […] The kinetic rate constants (kon and koff) and equilibrium dissociation constants (KD) of E02-INT and E02-GL-SG3932 for human B7-H4 antigen was also determined by SPR, using an antibody capture method.

[4] = tested on: SKBR3 cell line (target cell); assay: ADCC with primary human NK cells; assay type: cell-based; details: 1 μg/mL; NK cells from healthy donors
From the text: When IgG antibodies bind cell surface antigens via their Fab domains, the Fc portion of the antibodies can engage with FcγRIIIa on natural killer cells. The interaction of the Fc domain with FcγRIIIa induces cross-linking of the FcγRs, which triggers the release of cytotoxic granules containing perforin and granzymes, leading to the death of the target cell, a process called antibody-dependent cellular cytotoxicity (ADCC). The potential of antibody E02-INT and E02-GL-SG3932 to initiate ADCC activity was evaluated utilizing isolated primary human NK cells and the human breast cancer SKBR3 cell line as the target cell.
Next, human breast cancer SK-BR-3 cells were co-cultured with NK cells isolated from six healthy donors in the presence of 1 μg/mL E02-GL-SG3932, antibody intermediate E02-INT, isotype-matched control antibody NIP228, and the isotype-matched control ADC NIP228-SG3932 (FIG. 37). ADCC activity was evaluated by Incycte® Annexin V Dye binding of extracellular surface exposure of phosphatidyl serine on apoptotic cells, yielding a bright and stable red fluorescent signal. The fold-change was based on maximum cell death of non-drug treated NK/SK-BR-3 co-cultured cells. Maximum cell death was calculated by dividing the average red objects in experimental wells by the average maximum cell death in Staurosporine treated SK-BR-3 cells.

[5] = In vitro serum stability; assay type: in vitro ADME
From the text: (§1) The cleavable mal-PEG8-val-ala linker-SG3932 linker-warhead ADC offers the widest relative TI and compares favorably to benchmark. The four comparative linker-warheads are provided below.

[6] = tested on: MX1; assay: In vitro cytotoxicity; assay type: cell-based, human; details: first value of cell
From the text: as §1

B1: E02-GL-SG3932: E02-GL conjugated via cleavable mal-PEG8-val-ala linker to TOP1i warhead, DAR of 8 (conjugate)
heavy: QVQLQQWGAGLLKPSETLSLACTVYGGSFSGYYWNWIRQPPGKGLEWIGEINHSGSTSYNPSLKSRVTISVDTSKNQFSLKLSSVTAADTAVYYCARVLYNWNVDSWGQGTLVTVSSASTKGPSVFPLAPSSKSTSGGTAALGCLVKDYFPEPVTVSWNSGALTSGVHTFPAVLQSSGLYSLSSVVTVPSSSLGTQTYICNVNHKPSNTKVDKRV[human IgG1 Fc cut from this listing]
light: DIQMTQSPSSLSASVGDRVTITCRASQDIRNDVGWYQQKPGKAPKRLIYAASRLQSGVPSRFSGSGSGTEFTLTISSLQPEDFATYYCLQHNSYPRTFGQGTKVEIKRTVAAPSVFIFPPSDEQLKSGTASVVCLLNNFYPREAKVQWKVDNALQSGNSQESVTEQDSKDSTYSLSSTLTLSKADYEKHKVYACEVTHQGLSSPVTKSFNRGEC
- cell killing [1]: No significant killing
- SG3924 remaining attached at day 15 ([2]; cynomolgus monkey serum): 82.0%
- SG3924 remaining attached at day 15 ([2]; mouse serum): 84.5%
- SG3924 remaining attached at day 15 ([2]; rat serum): 83.5%
- Ka [3]: 95500 M⁻¹ s⁻¹
- Kd [3]: 0.0028 s⁻¹
- Rmax (RU) [3]: 49.7 RU
- ADCC activity beyond untreated co-cultured cells [4]: significant increase in ADCC activity
- In vitro serum stability (avg % deconjug. at day 15 vs 0) [5]: 24%
- In vitro cytotoxicity IC50 MX1 [6]: 8.81 ng/mL
